The list shows a part of the results. Many values rest on one well or one pass, so single values are uncertain.
The compounds below were run on G361 (assay: cell count relative to DMSO control; melanoma cells; higher = more viable cells). Settings: library dose: low library concentration; 72 h.
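Note: cell number obtained by counting DAPI-stained nuclei in high-throughput microscope images with image analysis software, screen run in 1,536-well plates.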

Structure (SMILES)	cell count [%]
CCCCCCCCc1ccc(CCC(N)(CO)CO)cc1 [fingolimod] + CC1(C)NC(=O)N(c2ccc([N+](=O)[O-])c(C(F)(F)F)c2)C1=O [nilutamide] (first compound 2 µM, partner dose 1 µM)	80.6
Cc1ccc(NC(=O)c2cccc(N(C)C)c2)cc1NC(=O)c1ccc(O)cc1 + CO[C@@H]1[C@H](N(C)C(=O)c2ccccc2)C[C@H]2O[C@]1(C)n1c3ccccc3c3c4c(c5c6ccccc6n2c5c31)C(=O)NC4 [Midostaurin] (first compound 2 µM, partner dose 0.08 µM)	96.7
CCCCCCCCc1ccc(CCC(N)(CO)CO)cc1 [fingolimod] + Cc1cc(N2CCOCC2)cc2[nH]c(-c3c(NC[C@@H](O)c4cccc(Cl)c4)cc[nH]c3=O)nc12 [BMS536924] (first compound 2 µM, partner dose 0.2 µM)	90.2
CCCCCCCCc1ccc(CCC(N)(CO)CO)cc1 [fingolimod] + O=C(O)c1ccc(-c2c[nH]c3ncc(-c4ccccc4)cc23)cc1C1CCCC1 [GSK650394] (first compound 2 µM, partner dose 0.16 µM)	115
Cc1ccc(NC(=O)c2cccc(N(C)C)c2)cc1NC(=O)c1ccc(O)cc1 + OCCn1cc(-c2cnc3nnn(Cc4ccc5ncccc5c4)c3n2)cn1 [PF04217903] (first compound 2 µM, partner dose 1 µM)	109
NC(=O)c1ccc(N(C(N)=O)c2c(F)cccc2F)nc1-c1ccc(F)cc1F + C=CCn1c(=O)c2cnc(Nc3ccc(N4CCN(C)CC4)cc3)nc2n1-c1cccc(C(C)(C)O)n1 [MK1775] (first compound 0.4 µM, partner dose 0.02 µM)	97.2
CC(C)(C)c1cnc(CSc2cnc(NC(=O)C3CCNCC3)s2)o1 + CN(NC(=O)CC(=O)NN(C)C(=S)c1ccccc1)C(=S)c1ccccc1 [STA4783] (first compound 0.01 µM, partner dose 0.006 µM)	82.4
Cc1ccc(NC(=O)c2cccc(N(C)C)c2)cc1NC(=O)c1ccc(O)cc1 + Cn1cncc1[C@@](N)(c1ccc(Cl)cc1)c1ccc2c(c1)c(-c1cccc(Cl)c1)cc(=O)n2C [tipifarnib] (first compound 2 µM, partner dose 0.01 µM)	86.6
Cc1ccc(NC(=O)c2cccc(N(C)C)c2)cc1NC(=O)c1ccc(O)cc1 + NCC(=O)Nc1ccc(-n2nc(C(F)(F)F)cc2-c2ccc3c(ccc4ccccc43)c2)cc1 [OSU03012] (first compound 2 µM, partner dose 1 µM)	122
CCCCCCCCc1ccc(CCC(N)(CO)CO)cc1 [fingolimod] + CN(NC(=O)CC(=O)NN(C)C(=S)c1ccccc1)C(=S)c1ccccc1 [STA4783] (first compound 2 µM, partner dose 0.006 µM)	96.4
NC(=O)c1ccc(N(C(N)=O)c2c(F)cccc2F)nc1-c1ccc(F)cc1F + COc1cc2c(Oc3ccc4[nH]c(C)cc4c3F)ncnc2cc1OCCCN1CCCC1 [cediranib] (first compound 0.4 µM, partner dose 0.4 µM)	101
NC(=O)c1ccc(N(C(N)=O)c2c(F)cccc2F)nc1-c1ccc(F)cc1F + O=C(Nc1cccc(Cl)c1)Nc1ncc(CCNc2ncnc3ccsc23)s1 [SNS314] (first compound 0.4 µM, partner dose 0.0008 µM)	95.6
CC(C)(C)c1cnc(CSc2cnc(NC(=O)C3CCNCC3)s2)o1 + NC(=O)Nc1cc(-c2cccc(F)c2)sc1C(=O)N[C@H]1CCCNC1 [AZD7762] (first compound 0.01 µM, partner dose 0.02 µM)	106
CN(NC(=O)CC(=O)NN(C)C(=S)c1ccccc1)C(=S)c1ccccc1 + COc1cc2c(Oc3ccc4[nH]c(C)cc4c3F)ncnc2cc1OCCCN1CCCC1 [cediranib] (first compound 0.006 µM, partner dose 0.4 µM)	76.2
CCCCCCCCc1ccc(CCC(N)(CO)CO)cc1 [fingolimod] + C[C@@H]1CCN(C(=O)CC#N)C[C@@H]1N(C)c1ncnc2[nH]ccc12 [CP690550] (first compound 2 µM, partner dose 1 µM)	96.5
CCCCCCCCc1ccc(CCC(N)(CO)CO)cc1 [fingolimod] + COc1cc2c(Oc3ccc4[nH]c(C)cc4c3F)ncnc2cc1OCCCN1CCCC1 [cediranib] (first compound 2 µM, partner dose 0.4 µM)	99.8
CC(C)(C)c1cnc(CSc2cnc(NC(=O)C3CCNCC3)s2)o1 + NCC(=O)Nc1ccc(-n2nc(C(F)(F)F)cc2-c2ccc3c(ccc4ccccc43)c2)cc1 [OSU03012] (first compound 0.01 µM, partner dose 1 µM)	96.5
CCCCCCCCc1ccc(CCC(N)(CO)CO)cc1 [fingolimod] + NCC(=O)Nc1ccc(-n2nc(C(F)(F)F)cc2-c2ccc3c(ccc4ccccc43)c2)cc1 [OSU03012] (first compound 2 µM, partner dose 1 µM)	94.5
CCCCCCCCc1ccc(CCC(N)(CO)CO)cc1 [fingolimod] + NC(=O)Nc1cc(-c2cccc(F)c2)sc1C(=O)N[C@H]1CCCNC1 [AZD7762] (first compound 2 µM, partner dose 0.02 µM)	128
CCCCCCCCc1ccc(CCC(N)(CO)CO)cc1 [fingolimod] + CO[C@@H]1[C@H](N(C)C(=O)c2ccccc2)C[C@H]2O[C@]1(C)n1c3ccccc3c3c4c(c5c6ccccc6n2c5c31)C(=O)NC4 [Midostaurin] (first compound 2 µM, partner dose 0.08 µM)	92.3
Cc1ccc(NC(=O)c2cccc(N(C)C)c2)cc1NC(=O)c1ccc(O)cc1 + CN(C)S(=O)(=O)c1ccc2c(c1)/C(=C/c1cc3c([nH]1)CCCC3)C(=O)N2 [SU6656] (first compound 2 µM, partner dose 0.4 µM)	99.3
NC(=O)c1ccc(N(C(N)=O)c2c(F)cccc2F)nc1-c1ccc(F)cc1F + OCCn1cc(-c2cnc3nnn(Cc4ccc5ncccc5c4)c3n2)cn1 [PF04217903] (first compound 0.4 µM, partner dose 1 µM)	86.7
CC(C)(C)c1cnc(CSc2cnc(NC(=O)C3CCNCC3)s2)o1 + Cc1cc(N2CCOCC2)cc2[nH]c(-c3c(NC[C@@H](O)c4cccc(Cl)c4)cc[nH]c3=O)nc12 [BMS536924] (first compound 0.01 µM, partner dose 0.2 µM)	83
NC(=O)c1ccc(N(C(N)=O)c2c(F)cccc2F)nc1-c1ccc(F)cc1F + NCC(=O)Nc1ccc(-n2nc(C(F)(F)F)cc2-c2ccc3c(ccc4ccccc43)c2)cc1 [OSU03012] (first compound 0.4 µM, partner dose 1 µM)	95.2
